Measurements reported in a collection of fitness landscapes (doi:10.1016/j.celrep.2020.107928).
Whole data set: some 81,000 sequences, median “one-hybrid fitness for binding NBS DNA” near -0.1, cut for the highest 2% near 0.36. The list shows a part of the results.

B1: Caulobacter ParB omega fusion; a variant is named by its letters at X, in order, B8GW30 (parent)
chain: MESVVVGEPGMSEGRRGLGRGLSALLGEVDAAPAQAPGEQLGGSREAPIEILQRNPDQPRRTFREEDLEDLSNSIREKGVLQPILVRPSPDTAGEYQIVAGERAWRAAQRAGLKTVPIMVRELDDLAVLEIGIIENVQRADLNVLEEALSYKVLMEKFERTQENIAQTIGKSXSHVANXMRLLXLPDEVQSYLVSGELTAXHARAIAAAADPVALAKQIIEGGLSVRETEALARKAPNLSAGKSKGGRPPRVKDTDTQALESDLSSVLGLDVSIDHRGSTGTLTITYATLEQLDDLCNRLTRGI

Variants of: B1
Assay: one-hybrid fitness for binding NBS DNA (the Noc-binding site; scaled: cognate 1, non-cognate 0); higher = stronger binding
Details: with NBS DNA site
In short: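 Fitness is the rescaled log change in variant-to-wild-type read ratio, measured by Illumina sequencing of plasmids before and after bacterial one-hybrid selection. The scale puts cognate at 1 and non-cognate at 0. Selection of Caulobacter ParB libraries, four specificity codons randomised, took place in E. coli USO with a HIS3 reporter, site 19 bp from the promoter, over 48 hours at 37°C on M9-minus-histidine with 0.1 mM IPTG and 5 mM 3-AT.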

Row | Variant | one-hybrid fitness for binding NBS DNA
1 | TANM | ≤ 0.2
2 | VTTP | ≤ 0.2
3 | YTTV | ≤ 0.2
4 | VKYR | ≤ 0.2
5 | CHLR | ≤ 0.2
6 | TTIH | ≤ 0.2
7 | WCIT | ≤ 0.2
8 | DMCC | ≤ 0.2
9 | LRGD | ≤ 0.2
10 | ETML | ≤ 0.2
11 | ASGR | ≤ 0.2
12 | NYEM | ≤ 0.2
13 | RCVD | ≤ 0.2
14 | EATV | ≤ 0.2
15 | NLSG | ≤ 0.2
16 | MHEV | ≤ 0.2
17 | AWES | ≤ 0.2
18 | GYST | ≤ 0.2
19 | EPRR | ≤ 0.2
20 | PSYN | ≤ 0.2
21 | YIAQ | ≤ 0.2
22 | RTLS | 0.381
23 | QKPV | ≤ 0.2
24 | PNQI | ≤ 0.2

Row | Variant | one-hybrid fitness for binding NBS DNA
25 | WVPC | ≤ 0.2
26 | AWAR | ≤ 0.2
27 | CRQC | ≤ 0.2
28 | KDML | ≤ 0.2
29 | RCHL | ≤ 0.2
30 | ASIR | ≤ 0.2
31 | PCDA | ≤ 0.2
32 | SHNS | ≤ 0.2
33 | QINH | ≤ 0.2
34 | FHQR | ≤ 0.2
35 | PPSV | ≤ 0.2
36 | AIHT | ≤ 0.2
37 | EAHM | ≤ 0.2
38 | RWDV | ≤ 0.2
39 | LYNT | ≤ 0.2
40 | SCVS | ≤ 0.2
41 | IDMR | ≤ 0.2
42 | KKTQ | ≤ 0.2
43 | GSRT | ≤ 0.2
44 | SRYY | ≤ 0.2
45 | HTMW | ≤ 0.2
46 | DHNT | ≤ 0.2
47 | QIFI | ≤ 0.2
48 | SLTC | ≤ 0.2

Row | Variant | one-hybrid fitness for binding NBS DNA
49 | RTSQ | ≤ 0.2
50 | VKKY | ≤ 0.2
51 | HNKA | ≤ 0.2
52 | LLHT | ≤ 0.2
53 | RRET | 0.698
54 | AQRM | ≤ 0.2
55 | THPF | ≤ 0.2
56 | APEV | ≤ 0.2
57 | WTSY | ≤ 0.2
58 | FMNL | ≤ 0.2
59 | DQSK | ≤ 0.2
60 | GKWN | ≤ 0.2
61 | HVYY | ≤ 0.2
62 | DQKI | ≤ 0.2
63 | IRAG | ≤ 0.2
64 | SRRA | ≤ 0.2
65 | NQHT | ≤ 0.2
66 | IGLE | ≤ 0.2
67 | RIWP | ≤ 0.2
68 | LWRD | ≤ 0.2
69 | HCWC | ≤ 0.2
70 | SQLE | ≤ 0.2
71 | GNAV | ≤ 0.2
72 | FKRV | ≤ 0.2

Row | Variant | one-hybrid fitness for binding NBS DNA
73 | KMKG | ≤ 0.2
74 | ARSH | ≤ 0.2
75 | QRVS | 0.561
76 | RRDW | ≤ 0.2
77 | SPHV | ≤ 0.2
78 | GLSG | ≤ 0.2
79 | TESC | ≤ 0.2
80 | NKYS | ≤ 0.2
81 | DGLT | ≤ 0.2
82 | CACV | ≤ 0.2
83 | PMEA | ≤ 0.2
84 | QKVS | 0.32
85 | GARS | ≤ 0.2
86 | WALY | ≤ 0.2
87 | RYVT | 0.229
88 | RCKC | 0.37
89 | MMAD | ≤ 0.2
90 | VLNN | ≤ 0.2
91 | RERF | ≤ 0.2
92 | MVTK | ≤ 0.2
93 | PCPH | ≤ 0.2
94 | PSPQ | ≤ 0.2
95 | KETW | ≤ 0.2
96 | VDVP | ≤ 0.2

Row | Variant | one-hybrid fitness for binding NBS DNA
97 | LEIW | ≤ 0.2
98 | GLPT | ≤ 0.2
99 | PRKE | ≤ 0.2
100 | RGAV | ≤ 0.2
101 | AIRA | ≤ 0.2
102 | MCLR | ≤ 0.2
103 | RRKS | 0.68
104 | NTLT | ≤ 0.2
105 | CKKF | ≤ 0.2
106 | GYTG | ≤ 0.2
107 | RHHL | ≤ 0.2
108 | HTVT | ≤ 0.2
109 | CCWG | ≤ 0.2
110 | AYMW | ≤ 0.2
111 | NDPC | ≤ 0.2
112 | TRFC | ≤ 0.2
113 | LGDY | ≤ 0.2
114 | TRIM | ≤ 0.2
115 | WNTI | ≤ 0.2
116 | KHPF | ≤ 0.2
117 | KQPG | ≤ 0.2
118 | QQYE | ≤ 0.2
119 | QCKN | 0.445
120 | DMYR | ≤ 0.2

Row | Variant | one-hybrid fitness for binding NBS DNA
121 | QTPQ | ≤ 0.2
122 | AYPV | ≤ 0.2
123 | MPPC | ≤ 0.2
124 | LNAD | ≤ 0.2
125 | YFSE | ≤ 0.2
126 | LAPV | ≤ 0.2
127 | LKDS | ≤ 0.2
128 | VWIR | ≤ 0.2
129 | PIYF | ≤ 0.2
130 | ACGS | ≤ 0.2
131 | YRKL | ≤ 0.2
132 | QRVN | 0.259
133 | VPVY | ≤ 0.2
134 | FSTT | ≤ 0.2
135 | PYHL | ≤ 0.2
136 | RIAH | ≤ 0.2
137 | CCQG | ≤ 0.2
138 | GPAC | ≤ 0.2
139 | MTKN | ≤ 0.2
140 | VNPC | ≤ 0.2
141 | PTCQ | ≤ 0.2
142 | LAFI | ≤ 0.2
143 | KMNQ | ≤ 0.2
144 | SPDD | ≤ 0.2

Row | Variant | one-hybrid fitness for binding NBS DNA
145 | GVDS | ≤ 0.2
146 | NDVR | ≤ 0.2
147 | PWPW | ≤ 0.2
148 | ATGS | ≤ 0.2
149 | WDSN | ≤ 0.2
150 | QPFV | ≤ 0.2
151 | QGMY | ≤ 0.2
152 | QVIR | 0.242
153 | IMNS | ≤ 0.2
154 | VRFR | ≤ 0.2
155 | SAHC | ≤ 0.2
156 | VTSD | ≤ 0.2
157 | HVVG | ≤ 0.2
158 | PLFV | ≤ 0.2
159 | LRHT | ≤ 0.2
160 | TPEW | ≤ 0.2
161 | GGSN | ≤ 0.2
162 | AREG | ≤ 0.2
163 | SFPE | ≤ 0.2
164 | TAMD | ≤ 0.2
165 | QHIV | ≤ 0.2
166 | TDGL | ≤ 0.2
167 | AGLI | ≤ 0.2
168 | WRGT | ≤ 0.2

Row | Variant | one-hybrid fitness for binding NBS DNA
169 | PVTW | ≤ 0.2
170 | RPQG | ≤ 0.2
171 | GLCC | ≤ 0.2
172 | RHAQ | ≤ 0.2
173 | IRRK | ≤ 0.2
174 | WMTR | ≤ 0.2
175 | WVHI | ≤ 0.2
176 | CAST | ≤ 0.2
177 | VGQW | ≤ 0.2
178 | ELNG | ≤ 0.2
179 | KKYS | ≤ 0.2
180 | HEHA | ≤ 0.2
181 | QKRY | 0.518
182 | EHWR | ≤ 0.2
183 | GYNG | ≤ 0.2
184 | SPVS | ≤ 0.2
185 | KPQW | ≤ 0.2
186 | LVHH | ≤ 0.2
187 | ASKN | ≤ 0.2
188 | LLIF | ≤ 0.2
189 | GGFS | ≤ 0.2
190 | TADP | ≤ 0.2
191 | LGTM | ≤ 0.2
192 | TWSC | ≤ 0.2

Row | Variant | one-hybrid fitness for binding NBS DNA
193 | CYYA | ≤ 0.2
194 | NPSL | ≤ 0.2
195 | EARD | ≤ 0.2
196 | SECR | ≤ 0.2
197 | FFRR | ≤ 0.2
198 | DFTE | ≤ 0.2
199 | RKNL | ≤ 0.2
200 | YKVT | ≤ 0.2
201 | QWVV | ≤ 0.2
202 | HKTC | ≤ 0.2
203 | LRKM | ≤ 0.2
204 | RDTW | ≤ 0.2
205 | VFTL | ≤ 0.2
206 | WVQS | ≤ 0.2
207 | FKIG | ≤ 0.2
208 | PALF | ≤ 0.2
209 | MKTT | ≤ 0.2
210 | PQEM | ≤ 0.2
211 | RNPL | ≤ 0.2
212 | RMQS | 0.409
213 | RWRC | ≤ 0.2
214 | VAYE | ≤ 0.2
215 | TPHA | ≤ 0.2
216 | QSWP | ≤ 0.2

Row | Variant | one-hybrid fitness for binding NBS DNA
217 | DFKL | ≤ 0.2
218 | APAE | ≤ 0.2
219 | SEQT | ≤ 0.2
220 | VLKV | ≤ 0.2
221 | QLLN | ≤ 0.2
222 | EYVR | ≤ 0.2
223 | MEYR | ≤ 0.2
224 | YKQS | ≤ 0.2
225 | TLDS | ≤ 0.2
226 | WTRH | ≤ 0.2
227 | TRLE | ≤ 0.2
228 | QCMR | 0.589
229 | VLNG | ≤ 0.2
230 | IAMP | ≤ 0.2
231 | KHPK | ≤ 0.2
232 | RCNT | 0.589
233 | AKKM | ≤ 0.2
234 | QGIS | ≤ 0.2
235 | YYHG | ≤ 0.2
236 | RFNV | ≤ 0.2
237 | TGHC | ≤ 0.2
238 | RHVP | ≤ 0.2
239 | RPTS | ≤ 0.2
240 | QTVV | ≤ 0.2

Row | Variant | one-hybrid fitness for binding NBS DNA
241 | QCME | ≤ 0.2
242 | IYYR | ≤ 0.2
243 | PPIW | ≤ 0.2
244 | ALQF | ≤ 0.2
245 | KMSG | ≤ 0.2
246 | AMGG | ≤ 0.2
247 | SDAV | ≤ 0.2
248 | FPTV | ≤ 0.2
249 | YIQL | ≤ 0.2
250 | SLSP | ≤ 0.2
251 | CIAS | ≤ 0.2
252 | GLAN | ≤ 0.2
253 | ALDV | ≤ 0.2
254 | RIDK | ≤ 0.2
255 | PLAP | ≤ 0.2
256 | LTTT | ≤ 0.2
257 | DLIY | ≤ 0.2
258 | CVGG | ≤ 0.2
259 | MGFT | ≤ 0.2
260 | PDGG | ≤ 0.2
261 | LDML | ≤ 0.2
262 | AHDT | ≤ 0.2
263 | TEGI | ≤ 0.2
264 | ATFR | ≤ 0.2

Row | Variant | one-hybrid fitness for binding NBS DNA
265 | EMLC | ≤ 0.2
266 | RHHC | ≤ 0.2
267 | SIWT | ≤ 0.2
268 | LSIT | ≤ 0.2
269 | VCTC | ≤ 0.2
270 | PPWR | ≤ 0.2
271 | AMSC | ≤ 0.2
272 | LNSN | ≤ 0.2
273 | ICMR | ≤ 0.2
274 | QTRG | 0.496
275 | PMWV | ≤ 0.2
276 | CSIM | ≤ 0.2
277 | FASL | ≤ 0.2
278 | YQVF | ≤ 0.2
279 | NQWC | ≤ 0.2
280 | VTGS | ≤ 0.2
281 | SRMT | ≤ 0.2
282 | SHVS | ≤ 0.2
283 | PRRL | ≤ 0.2
284 | YENK | ≤ 0.2
285 | TPCV | ≤ 0.2
286 | KGHR | ≤ 0.2
287 | PHTM | ≤ 0.2
288 | PCGT | ≤ 0.2

Row | Variant | one-hybrid fitness for binding NBS DNA
289 | KQRQ | ≤ 0.2
290 | CEDV | ≤ 0.2
291 | RAKP | ≤ 0.2
292 | CMNS | ≤ 0.2
293 | NNHL | ≤ 0.2
294 | QMPG | ≤ 0.2
295 | SIDR | ≤ 0.2
296 | EMSS | ≤ 0.2
297 | LDNA | ≤ 0.2
298 | NRVG | ≤ 0.2
299 | TIDT | ≤ 0.2
300 | HMPF | ≤ 0.2
301 | MAST | ≤ 0.2
302 | WPYP | ≤ 0.2
303 | KIPR | ≤ 0.2
304 | HVKI | ≤ 0.2
305 | TFMD | ≤ 0.2
306 | VTHG | ≤ 0.2
